EPA's CvTdb concentration-time database
This continues a long series; more values of the same kind are listed elsewhere.

Key:
Rat [1] = assay: concentration in brain after dosing; conditions: 1.5 h; dosed: 2-Methyltetrahydrofuran; 10 mg/kg; iv; Male; F344
Rat [2] = assay: concentration in brain after dosing; conditions: 0.75 h; dosed: 2-Methyltetrahydrofuran; 10 mg/kg; oral; Female; F344
Rat [3] = assay: concentration in plasma after dosing; conditions: 1 h; dosed: 2-Methyltetrahydrofuran; 10 mg/kg; iv; Male; F344
Rat [4] = assay: concentration in plasma after dosing; conditions: 1 h; dosed: 2-Methyltetrahydrofuran; 30 mg/kg; oral; Male; F344
Rat [5] = assay: concentration in brain after dosing; conditions: 2 min; dosed: 2-Methyltetrahydrofuran; 10 mg/kg; oral; Female; F344
Rat [6] = assay: concentration in brain after dosing; conditions: 0.5 h; dosed: 2-Methyltetrahydrofuran; 30 mg/kg; oral; Male; F344
Rat [7] = assay: concentration in brain after dosing; conditions: 0.5 h; dosed: 2-Methyltetrahydrofuran; 10 mg/kg; iv; Female; F344
Rat [8] = assay: concentration in plasma after dosing; conditions: 10 min; dosed: 2-Methyltetrahydrofuran; 400 mg/kg; oral; Female; Harlan Sprague Dawley
Rat [9] = assay: concentration in plasma after dosing; conditions: 12 h; dosed: 2-Methyltetrahydrofuran; 400 mg/kg; oral; Male; F344
Rat [10] = assay: concentration in plasma after dosing; conditions: 2 min; dosed: 2-Methyltetrahydrofuran; 10 mg/kg; iv; Male; F344
Rat [11] = assay: concentration in plasma after dosing; conditions: 0.5 h; dosed: 2-Methyltetrahydrofuran; 10 mg/kg; oral; Male; F344
Rat [12] = assay: concentration in plasma after dosing; conditions: 10 min; dosed: 2-Methyltetrahydrofuran; 10 mg/kg; oral; Female; F344
Rat [13] = assay: concentration in brain after dosing; conditions: 8 h; dosed: 2-Methyltetrahydrofuran; 100 mg/kg; oral; Female; Harlan Sprague Dawley
Rat [14] = assay: concentration in brain after dosing; conditions: 20 min; dosed: 2-Methyltetrahydrofuran; 100 mg/kg; oral; Female; Harlan Sprague Dawley
Rat [15] = assay: concentration in plasma after dosing; conditions: 0.25 h; dosed: 2-Methyltetrahydrofuran; 10 mg/kg; oral; Male; F344
Rat [16] = assay: concentration in brain after dosing; conditions: 1.5 h; dosed: 2-Methyltetrahydrofuran; 10 mg/kg; oral; Female; F344
Rat [17] = assay: concentration in brain after dosing; conditions: 10 min; dosed: 2-Methyltetrahydrofuran; 30 mg/kg; oral; Female; F344
Rat [18] = assay: concentration in brain after dosing; conditions: 2 h; dosed: 2-Methyltetrahydrofuran; 10 mg/kg; iv; Female; F344
Rat [19] = assay: concentration in brain after dosing; conditions: 1.5 h; dosed: 2-Methyltetrahydrofuran; 100 mg/kg; oral; Male; Harlan Sprague Dawley
Rat [20] = assay: concentration in plasma after dosing; conditions: dosed: Bromochloroacetic acid, 80 mg/kg, iv, Female, Harlan Sprague-Dawley
Rat [21] = assay: concentration in plasma after dosing; conditions: dosed: Bromochloroacetic acid, 100 mg/kg, oral, Female, F344
Rat [22] = assay: concentration in plasma after dosing; conditions: dosed: Bromochloroacetic acid, 40 mg/kg, oral, Female, F344
Rat [23] = assay: concentration in plasma after dosing; conditions: dosed: Bromochloroacetic acid, 100 mg/kg, oral, Female, F344; remark: listed apart in the source
Rat [24] = assay: concentration in plasma after dosing; conditions: dosed: Fluorotelomer alcohol 8+2, 40 mg/kg, oral, Female, Harlan Sprague Dawley
Rat [25] = assay: concentration in plasma after dosing; conditions: dosed: Formamide, 300 mg/kg, oral, Female, Harlan Sprague Dawley
Rat [26] = assay: concentration in plasma after dosing; conditions: dosed: Formamide, 36 mg/kg, oral, Female, Harlan Sprague Dawley
Rat [27] = assay: concentration in plasma after dosing; conditions: 5 h; dosed: Formamide; 90 mg/kg; iv; Male; Harlan Sprague Dawley
Rat [28] = assay: concentration in plasma after dosing; conditions: dosed: Formamide, 300 mg/kg, oral, Female, F344
Rat [29] = assay: concentration in plasma after dosing; conditions: dosed: Formamide, 90 mg/kg, iv, Male, Harlan Sprague Dawley
Rat [30] = assay: concentration in plasma after dosing; conditions: dosed: Formamide, 300 mg/kg, oral, Female, Harlan Sprague Dawley; remark: listed apart in the source
Rat [31] = assay: concentration in plasma after dosing; conditions: 20 min; dosed: Pyridine; 10 mg/kg; oral; Male; Harlan Sprague Dawley
Rat [32] = assay: concentration in plasma after dosing; conditions: 1 h; dosed: Pyridine; 5 mg/kg; iv; Male; F344
Rat [33] = assay: concentration in plasma after dosing; conditions: dosed: Pyridine, 5 mg/kg, oral, Female, F344
Rat [34] = assay: concentration in plasma after dosing; conditions: 20 min; dosed: Pyridine; 10 mg/kg; oral; Male; Harlan Sprague Dawley; remark: listed apart in the source
Rat [35] = assay: concentration in plasma after dosing; conditions: 1 h; dosed: Pyridine; 200 mg/kg; oral; Female; Harlan Sprague Dawley
Rat [36] = assay: concentration in plasma after dosing; conditions: dosed: Pyridine, 5 mg/kg, iv, Male, F344
Rat [37] = assay: concentration in plasma after dosing; conditions: 2 h; dosed: Pyridine; 50 mg/kg; oral; Male; Harlan Sprague Dawley

In the case of `CC1CCCO1` (centres undefined) [2-Methyltetrahydrofuran], the concentration in brain (Rat [1]) is reported as 0.582 µg/g, the concentration in brain (Rat [2]) is reported as 0.719 µg/g and the concentration in plasma (Rat [3]) is reported as 2980 ng/mL. The concentration in plasma (Rat [4]) was 15700 ng/mL, the concentration in brain (Rat [5]) was 2.14 µg/g and the concentration in brain (Rat [6]) was 14.2 µg/g. For the same compound, the concentration in brain (Rat [7]) was 1.98 µg/g, the concentration in plasma (Rat [8]) was 162000 ng/mL and the concentration in plasma (Rat [9]) was 314 ng/mL. The concentration in plasma (Rat [10]) was 21900 ng/mL, the concentration in plasma (Rat [11]) was 3430 ng/mL and the concentration in plasma (Rat [12]) was 4480 ng/mL. It also gave a concentration in brain (Rat [13]) of 0.228 µg/g, a concentration in brain (Rat [14]) of 50.5 µg/g and a concentration in plasma (Rat [15]) of 2990 ng/mL. For the same compound, the concentration in brain (Rat [16]) was 0.159 µg/g, the concentration in brain (Rat [17]) was 8.96 µg/g and the concentration in brain (Rat [18]) was 0.109 µg/g. For the same compound, the concentration in brain (Rat [19]) was 33.9 µg/g.

Compound `O=C(O)C(Cl)Br` (centres undefined) [Bromochloroacetic acid] has a concentration in plasma (Rat [20]; 1 h) of 18300 ng/mL, a concentration in plasma (Rat [20]; 2 h) of 1050 ng/mL and a concentration in plasma (Rat [21]; 10 min) of 8610 ng/mL. For the same compound, the concentration in plasma (Rat [21]; 4.5 h) was 2950 ng/mL, the concentration in plasma (Rat [22]; 20 min) was 9880 ng/mL and the concentration in plasma (Rat [22]; 6 h) was 660 ng/mL. The concentration in plasma (Rat [23]; 0.25 h) was 25800 ng/mL and the concentration in plasma (Rat [23]; 6 h) was 2090 ng/mL.

Compound `OCCC(F)(F)C(F)(F)C(F)(F)C(F)(F)C(F)(F)C(F)(F)C(F)(F)C(F)(F)F` [Fluorotelomer alcohol 8+2] has a concentration in plasma (Rat [24]; 0.5 h) of 7.32 ng/mL and a concentration in plasma (Rat [24]; 9 h) of 49.7 ng/mL.

`NC=O` [Formamide] was tested, and the concentration in plasma (Rat [25]; 1.5 h) was 242000 ng/mL, the concentration in plasma (Rat [25]; 30 h) was 99200 ng/mL and the concentration in plasma (Rat [26]; 1 h) was 50700 ng/mL. The concentration in plasma (Rat [26]; 72 h) was 2200 ng/mL, the concentration in plasma (Rat [27]) was 112000 ng/mL and the concentration in plasma (Rat [28]; 1 h) was 186000 ng/mL. The concentration in plasma (Rat [28]; 72 h) was 6000 ng/mL, the concentration in plasma (Rat [29]; 10 min) was 90100 ng/mL and the concentration in plasma (Rat [29]; 18 h) was 22500 ng/mL. It also gave a concentration in plasma (Rat [30]; 8 h) of 375000 ng/mL and a concentration in plasma (Rat [30]; 12 h) of 300000 ng/mL.

With `c1ccncc1` [Pyridine] the concentration in plasma (Rat [31]) was 4890 ng/mL, the concentration in plasma (Rat [32]) was 3750 ng/mL and the concentration in plasma (Rat [33]; 5 min) was 2200 ng/mL. For the same compound, the concentration in plasma (Rat [33]; 4 h) was 2740 ng/mL, the concentration in plasma (Rat [34]) was 5900 ng/mL and the concentration in plasma (Rat [35]) was 97000 ng/mL. For the same compound, the concentration in plasma (Rat [36]; 3 h) was 2550 ng/mL, the concentration in plasma (Rat [36]; 10 h) was 81.3 ng/mL and the concentration in plasma (Rat [37]) was 26300 ng/mL.
